In this assay the target is 93TH057 gp120 core (HIV-1). As to the kind of experiment: structure PDB 3NGB, AreaIMol, 1.4 Å probe.

Entries with a single value are a further part of the results.

Consider “VRC01 Fab (structure of VRC01-93TH057, PDB code 3NGB)”, for which, for the setting “VRC01 heavy chain”, the buried surface area, CDR1 came out at 20 Å^2 and the buried surface area, FWR3 stood at 521 Å^2. Also, for the setting “VRC01 light chain”, the buried surface area, CDR1 was determined as 114 Å^2 and the buried surface area, FWR3 amounted to 0 Å^2.

(Values after patent US20130209454A1.)
